# Measured values as given in the supplement of paper PMC8728848.
# Some of the results follow.
# B1: NanI (Corynebacterium diphtheriae), C6JSW7 (protein)
# chain: MTNTLESNPMTTTTGALTITFATTCDGPLAHIPHHLDLNIIHGRIQGTTAHRRIDAEDPDGLDDGLPHHLCLSVDTTGTHLFIDGYEAFSTTQTEWFDTSELTLNPHGDLTIIDHQILNHAPTPRQARNLAPAAEPLVWFAGSHLSTRDTQRISHLTHGSLRLLMKTRGTGQGGVAFQAHTINGDLTLEIIDGTLIFSVRCHDEDYVRITAPGRWDDGQIYDVVIVCGRGATDIYVDGQQLIHSPGAAFFNDLSGELSVHIGTAASGVRLFGEVQSGMIYPHVFNHHQVQRLATVEPIATQALFDCLLDGAQSYRIPSLITTDSGVIIAGADKRVSIANDAPNDIDFVLRRSVDGGRTWQPPRTILQLPDTACVTDSVLLQDHTTGRIFAFLDQFPAGIGQPNAAFGTGFDADGNRIGHFADGSTCTMPREVDQLEASFFSDPHTAPPGIVFQHPSCHLWMLTSDDDGLTWSTPRDLTPDVKEEWMRFCGTSPGNGIQLQRDTHAGRLLIPMYYTKGDQFFAAALYSDDHGDTWHRGESPDLEMYESTLVEASDGSVLLWARNQHPSGAVAHARSTDGGHSWSQVTFNPNVPEIFSQPNALRVTNPDGIIFANASQLLPFRGRGVLRMSTNDGASWQHNRVFNPRHYVYQCMTQLPDGSIGLLWEREMQGLFFSIIPMTWIMQGYAL
# Legend:
# Experiment in all cases: glycan array binding signal (z-score within array); higher = stronger binding
# Conditions in all cases: glycan notation: IUPAC condensed, linker removed
# [1] = target: Gal3S(b1-3)[Fuc(a1-4)]GlcNAc
# How it was run: (§1)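 From the Consortium for Functional Glycomics database, 3228 arrays were curated, keeping only those whose protein sequence was available. Binding is given as a within-array Z-score averaged across arrays sharing a protein sequence and across linkers. Negative Z-scores can be read as non-binding.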
# Gal3S(b1-4)Glc = target: Gal3S(b1-4)Glc
# How it was run: as §1
# Gal3S(b1-4)Glc6S = target: Gal3S(b1-4)Glc6S
# How it was run: as §1
# Gal3S(b1-4)GlcNAc = target: Gal3S(b1-4)GlcNAc
# How it was run: as §1
# Gal3S(b1-4)GlcNAc6S = target: Gal3S(b1-4)GlcNAc6S
# How it was run: as §1
# [2] = target: Gal3S(b1-4)[Fuc(a1-3)]Glc
# How it was run: as §1
# [3] = target: Gal3S(b1-4)[Fuc(a1-3)]Glc6S
# How it was run: as §1
# Gal3S4S(b1-4)GlcNAc = target: Gal3S4S(b1-4)GlcNAc
# How it was run: as §1
# Gal3S6S(b1-4)GlcNAc = target: Gal3S6S(b1-4)GlcNAc
# How it was run: as §1
# Gal3S6S(b1-4)GlcNAc6S = target: Gal3S6S(b1-4)GlcNAc6S
# How it was run: as §1
# Gal4S(b1-4)GlcNAc = target: Gal4S(b1-4)GlcNAc
# How it was run: as §1
# Gal4S6S(b1-4)GlcNAc = target: Gal4S6S(b1-4)GlcNAc
# How it was run: as §1
# Gal6S(b1-3)GlcNAc = target: Gal6S(b1-3)GlcNAc
# How it was run: as §1
# Gal6S(b1-3)GlcNAc6S = target: Gal6S(b1-3)GlcNAc6S
# How it was run: as §1
# Gal6S(b1-4)Glc = target: Gal6S(b1-4)Glc
# How it was run: as §1
# Gal6S(b1-4)Glc6S = target: Gal6S(b1-4)Glc6S
# How it was run: as §1
# Gal6S(b1-4)GlcNAc = target: Gal6S(b1-4)GlcNAc
# How it was run: as §1
# Gal6S(b1-4)GlcNAc6S = target: Gal6S(b1-4)GlcNAc6S
# How it was run: as §1
# GalNAc(a1-3)Gal = target: GalNAc(a1-3)Gal
# How it was run: as §1
# GalNAc(a1-3)GalNAc = target: GalNAc(a1-3)GalNAc
# How it was run: as §1
# [4] = target: GalNAc(a1-3)GalNAc(b1-3)Gal(a1-4)Gal(b1-4)Glc
# How it was run: as §1
# [5] = target: GalNAc(a1-3)GalNAc(b1-3)Gal(a1-4)Gal(b1-4)GlcNAc
# How it was run: as §1
# GalNAc(b1-3)Gal = target: GalNAc(b1-3)Gal
# How it was run: as §1
# [6] = target: GalNAc(b1-3)Gal(a1-4)Gal(b1-4)GlcNAc
# How it was run: as §1
# [7] = target: GalNAc(b1-3)Gal(a1-4)Gal(b1-4)GlcNAc(b1-3)Gal(b1-4)Glc
# How it was run: as §1
# [8] = target: GalNAc(b1-3)Gal(a1-6)Gal(b1-4)Glc
# How it was run: as §1
# GalNAc(b1-3)GalNAc = target: GalNAc(b1-3)GalNAc
# How it was run: as §1
# GalNAc(b1-4)Gal(b1-4)Glc = target: GalNAc(b1-4)Gal(b1-4)Glc
# How it was run: as §1
# GalNAc(b1-4)GlcNAc = target: GalNAc(b1-4)GlcNAc
# How it was run: as §1
# [9] = target: GalNAc(b1-4)GlcNAc(b1-2)Man(a1-3)[GalNAc(b1-4)GlcNAc(b1-2)Man(a1-6)]Man(b1-4)GlcNAc(b1-4)GlcNAc
# How it was run: as §1
# GalNAc(b1-6)GalNAc = target: GalNAc(b1-6)GalNAc
# How it was run: as §1
# Glc(a1-4)Glc = target: Glc(a1-4)Glc
# How it was run: as §1
# [10] = target: Glc(a1-4)Glc(a1-4)Glc(a1-4)Glc
# How it was run: as §1
# Glc(a1-6)Glc(a1-6)Glc = target: Glc(a1-6)Glc(a1-6)Glc
# How it was run: as §1
# [11] = target: Glc(a1-6)Glc(a1-6)Glc(a1-6)Glc
# How it was run: as §1
# Glc(b1-4)Glc = target: Glc(b1-4)Glc
# How it was run: as §1
# Glc(b1-6)Glc = target: Glc(b1-6)Glc
# How it was run: as §1
# GlcA(b1-3)Gal = target: GlcA(b1-3)Gal
# How it was run: as §1
# GlcA(b1-3)GlcNAc = target: GlcA(b1-3)GlcNAc
# How it was run: as §1
# GlcA(b1-6)Gal = target: GlcA(b1-6)Gal
# How it was run: as §1
# [12] = target: GlcNAc(a1-3)Gal(b1-4)GlcNAc
# How it was run: as §1
# [13] = target: GlcNAc(a1-4)Gal(b1-3)GlcNAc
# How it was run: as §1
# [14] = target: GlcNAc(a1-4)Gal(b1-4)GalNAc
# How it was run: as §1
# [15] = target: GlcNAc(a1-4)Gal(b1-4)GlcNAc
# How it was run: as §1
# [16] = target: GlcNAc(a1-4)Gal(b1-4)GlcNAc(b1-3)Gal(b1-4)Glc
# How it was run: as §1
# [17] = target: GlcNAc(a1-4)Gal(b1-4)GlcNAc(b1-3)Gal(b1-4)GlcNAc
# How it was run: as §1
# [18] = target: GlcNAc(a1-4)Gal(b1-4)GlcNAc(b1-3)Gal(b1-4)GlcNAc(b1-3)Gal(b1-4)GlcNAc
# How it was run: as §1
# [19] = target: GlcNAc(a1-4)Gal(b1-4)GlcNAc(b1-3)Gal(b1-4)[Fuc(a1-3)]GlcNAc(b1-3)Gal(b1-4)[Fuc(a1-3)]GlcNAc
# How it was run: as §1
# [20] = target: GlcNAc(a1-6)Gal(b1-4)GlcNAc
# How it was run: as §1
# [21] = target: GlcNAc(b1-2)Gal(b1-3)GalNAc
# How it was run: as §1
# [22] = target: GlcNAc(b1-2)Man(a1-3)[GlcNAc(b1-2)Man(a1-6)]Man(b1-4)GlcNAc(b1-4)GlcNAc
# How it was run: as §1
# [23] = target: GlcNAc(b1-2)Man(a1-3)[GlcNAc(b1-2)Man(a1-6)]Man(b1-4)GlcNAc(b1-4)[Fuc(a1-6)]GlcNAc
# How it was run: as §1
# [24] = target: GlcNAc(b1-2)Man(a1-3)[GlcNAc(b1-4)][GlcNAc(b1-2)Man(a1-6)]Man(b1-4)GlcNAc(b1-4)GlcNAc
# How it was run: as §1
# [25] = target: GlcNAc(b1-2)[GlcNAc(b1-4)]Man(a1-3)[GlcNAc(b1-2)Man(a1-6)]Man(b1-4)GlcNAc(b1-4)GlcNAc
# How it was run: as §1
# [26] = target: GlcNAc(b1-2)[GlcNAc(b1-4)]Man(a1-3)[GlcNAc(b1-4)][GlcNAc(b1-2)Man(a1-6)]Man(b1-4)GlcNAc(b1-4)GlcNAc
# How it was run: as §1
# [27] = target: GlcNAc(b1-2)[GlcNAc(b1-4)]Man(a1-3)[GlcNAc(b1-4)][GlcNAc(b1-2)[GlcNAc(b1-6)]Man(a1-6)]Man(b1-4)GlcNAc(b1-4)GlcNAc
# How it was run: as §1
# [28] = target: GlcNAc(b1-2)[GlcNAc(b1-6)]Man(a1-6)[GlcNAc(b1-2)Man(a1-3)]Man(b1-4)GlcNAc(b1-4)GlcNAc
# How it was run: as §1
# [29] = target: GlcNAc(b1-2)[GlcNAc(b1-6)]Man(a1-6)[GlcNAc(b1-2)Man(a1-3)][GlcNAc(b1-4)]Man(b1-4)GlcNAc(b1-4)GlcNAc
# How it was run: as §1
# GlcNAc(b1-3)Gal = target: GlcNAc(b1-3)Gal
# How it was run: as §1
# [30] = target: GlcNAc(b1-3)Gal(b1-3)GalNAc
# How it was run: as §1
binder,measurement,setting,value
B1,glycan array binding signal (z-score),[1],-0.788
same,glycan array binding signal (z-score),Gal3S(b1-4)Glc,0.343
same,glycan array binding signal (z-score),Gal3S(b1-4)Glc6S,-0.332
same,glycan array binding signal (z-score),Gal3S(b1-4)GlcNAc,0.066
same,glycan array binding signal (z-score),Gal3S(b1-4)GlcNAc6S,0.609
same,glycan array binding signal (z-score),[2],1.09
same,glycan array binding signal (z-score),[3],-0.197
same,glycan array binding signal (z-score),Gal3S4S(b1-4)GlcNAc,-0.68
same,glycan array binding signal (z-score),Gal3S6S(b1-4)GlcNAc,0.007
same,glycan array binding signal (z-score),Gal3S6S(b1-4)GlcNAc6S,-0.141
same,glycan array binding signal (z-score),Gal4S(b1-4)GlcNAc,-0.503
same,glycan array binding signal (z-score),Gal4S6S(b1-4)GlcNAc,-0.979
same,glycan array binding signal (z-score),Gal6S(b1-3)GlcNAc,0.53
same,glycan array binding signal (z-score),Gal6S(b1-3)GlcNAc6S,-0.717
same,glycan array binding signal (z-score),Gal6S(b1-4)Glc,-0.205
same,glycan array binding signal (z-score),Gal6S(b1-4)Glc6S,-0.493
same,glycan array binding signal (z-score),Gal6S(b1-4)GlcNAc,-0.815
same,glycan array binding signal (z-score),Gal6S(b1-4)GlcNAc6S,0.977
same,glycan array binding signal (z-score),GalNAc(a1-3)Gal,-0.952
same,glycan array binding signal (z-score),GalNAc(a1-3)GalNAc,-0.302
same,glycan array binding signal (z-score),[4],-0.577
same,glycan array binding signal (z-score),[5],-0.624
same,glycan array binding signal (z-score),GalNAc(b1-3)Gal,0.025
same,glycan array binding signal (z-score),[6],-0.825
same,glycan array binding signal (z-score),[7],-0.854
same,glycan array binding signal (z-score),[8],0.28
same,glycan array binding signal (z-score),GalNAc(b1-3)GalNAc,-0.471
same,glycan array binding signal (z-score),GalNAc(b1-4)Gal(b1-4)Glc,1.01
same,glycan array binding signal (z-score),GalNAc(b1-4)GlcNAc,-0.67
same,glycan array binding signal (z-score),[9],0.628
same,glycan array binding signal (z-score),GalNAc(b1-6)GalNAc,-0.739
same,glycan array binding signal (z-score),Glc(a1-4)Glc,-0.173
same,glycan array binding signal (z-score),[10],-0.547
same,glycan array binding signal (z-score),Glc(a1-6)Glc(a1-6)Glc,-0.462
same,glycan array binding signal (z-score),[11],-0.017
same,glycan array binding signal (z-score),Glc(b1-4)Glc,-0.612
same,glycan array binding signal (z-score),Glc(b1-6)Glc,-0.717
same,glycan array binding signal (z-score),GlcA(b1-3)Gal,0.643
same,glycan array binding signal (z-score),GlcA(b1-3)GlcNAc,-0.388
same,glycan array binding signal (z-score),GlcA(b1-6)Gal,0.31
same,glycan array binding signal (z-score),[12],-0.55
same,glycan array binding signal (z-score),[13],-0.205
same,glycan array binding signal (z-score),[14],1.09
same,glycan array binding signal (z-score),[15],-0.096
same,glycan array binding signal (z-score),[16],-0.183
same,glycan array binding signal (z-score),[17],4.05
same,glycan array binding signal (z-score),[18],-0.152
same,glycan array binding signal (z-score),[19],9.15
same,glycan array binding signal (z-score),[20],-0.234
same,glycan array binding signal (z-score),[21],0.39
same,glycan array binding signal (z-score),[22],-0.109
same,glycan array binding signal (z-score),[23],1.02
same,glycan array binding signal (z-score),[24],-0.236
same,glycan array binding signal (z-score),[25],-0.014
same,glycan array binding signal (z-score),[26],-0.8
same,glycan array binding signal (z-score),[27],-0.983
same,glycan array binding signal (z-score),[28],-0.496
same,glycan array binding signal (z-score),[29],-0.608
same,glycan array binding signal (z-score),GlcNAc(b1-3)Gal,-0.248
same,glycan array binding signal (z-score),[30],2.79
